The other results are listed elsewhere or left out.

From the supplement of paper PMC11417369 come the findings set out here.

The test system of the experiment is PfAP2-HC AP2 domain (GST-tagged). In words: gcPBM binding intensity (ln(normalized median fluorescence intensity)); higher = stronger DNA binding. The essentials:
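In this array assay, P. falciparum DNA-binding domains with a GST tag, expressed in E. coli, were applied for 1 h to primer-extended double-stranded 36-bp intergenic genomic probes and negative controls on an Agilent 4 × 180k array. Bound protein was visualised with Alexa488 anti-GST antibody at 488 nm. Binding intensity is the highest Masliner-normalised natural-log median intensity across replicate spots of either probe orientation.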
As for “ATCGAGAAAAATAAAATAATACAATTTCTTTAAATA [XGTACX_negctrl_site162]”, the “gcPBM binding intensity (ln)” value stood at 9.48.

Take “ATTCCCTTAAGAAACTGTACAAAACTTTCTTCGATT [XGTACX_site775]”: the “gcPBM binding intensity (ln)” value is 9.57.

On to “GTGTGTGTATATATTTGTACATATATTTAAACATAT [XGTACX_site1074]”, for which the “gcPBM binding intensity (ln)” value is 10.5.

As for “TATACATAAATTATATGTACTGAAAATACATAATTA [XGTACX_site3626]”, the “gcPBM binding intensity (ln)” value came to 9.55.

As to “AAAAAGAAGAATATATGTACACAAAATTTATGAGTT [XGTACX_site8609]”, the “gcPBM binding intensity (ln)” value is 9.82.

On to “AAAAAAAAAAATATATTATTTTACTTGTTTATTTTA [CACACA_negctrl_site1447]”, for which the “gcPBM binding intensity (ln)” value was determined as 9.55.

As for “CATTATAAGAAACACACACACATATATATATATATA [CACACA_site1051]”, the “gcPBM binding intensity (ln)” value is 10.1.

Consider “AAATTCTTAACCCAACGTACATATAATAAATTCTTA [XGTACX_site8538]”, for which the “gcPBM binding intensity (ln)” value is 9.46.

Take “TAAACCAAACAATTATGTATAAGATGTATATATATA [GTGCAC_negctrl_site438]”: the “gcPBM binding intensity (ln)” value turned out to be 9.69.

Regarding “AAAAAAAAAAGAACCCGTACATAAATAATATATATA [XGTACX_site164]”, the “gcPBM binding intensity (ln)” value stood at 9.73.

“TTTTTTTTTTCTTAGGTGCAAAAAATAAGTATATAT [GTGCAC_site9394]”: the “gcPBM binding intensity (ln)” value was found to be 9.41.

As to “TTTTTTTTGTATTAATGTACATATAACTTTTTTTTT [XGTACX_site7903]”, the “gcPBM binding intensity (ln)” value was 9.5.

For the sequence “TAAAAAATAAAATAATGTACATATGAATTATATATT [XGTACX_site8398]”, the “gcPBM binding intensity (ln)” value amounted to 9.68.

In the case of “AAAAAAAAAAAAGAAACACACACATTTGTATATAAT [CACACA_site8648]”, the “gcPBM binding intensity (ln)” value came to 10.4.

For the sequence “TATAGTTATATTAGAAGTACTTCATTTTAACATATT [XGTACX_site7101]”, the “gcPBM binding intensity (ln)” value was determined as 9.55.

Turning to “GAAACATAAAAATATATTGAAATAGTATCATGGGTA [CACACA_negctrl_site352]”, the “gcPBM binding intensity (ln)” value stood at 9.7.

In the case of “TTAATTACATGTTATTGTACGTATTTTCTATCTATC [XGTACX_site844]”, the “gcPBM binding intensity (ln)” value came out at 9.77.

Take “CATACAGACGAACACACACACATATAAATATAAATA [CACACA_site6443]”: the “gcPBM binding intensity (ln)” value turned out to be 10.2.

Turning to “AACCACATGGTGTAATGTACATTACCTTAACAATAA [XGTACX_site3055]”, the “gcPBM binding intensity (ln)” value was found to be 9.75.

For “AAATATTATATATATACACACACACCGGCATGCACA [CACACA_site7916]”, the “gcPBM binding intensity (ln)” value amounted to 10.2.

With “TATTATTTTTTTTTTTGTACATATATGTATATATAT [XGTACX_site8471]”, the “gcPBM binding intensity (ln)” value stood at 9.71.

In the case of “TATAATAAAATTGGTAGTACATTAATTTATGTATAG [XGTACX_site3059]”, the “gcPBM binding intensity (ln)” value amounted to 9.64.

For the sequence “AAAAAAATTCTTGGCGCACACACTTTAAAAATTAAA [CACACA_site597]”, the “gcPBM binding intensity (ln)” value worked out at 9.94.

With “AAGGATTACAAAAAAAGTACAAATGGATTTTTTCCC [XGTACX_site8905]”, the “gcPBM binding intensity (ln)” value is 9.55.

In the case of “CTTACAAATAAACAACGTACTTATTCGAATTATGCT [XGTACX_site2431]”, the “gcPBM binding intensity (ln)” value worked out at 9.63.

As for “GTTTTAAAATTAAATATTATGGCATAATTCAAGAAA [GTGCAC_negctrl_site721]”, the “gcPBM binding intensity (ln)” value came to 9.45.

For “AAAATTTTTTAACACTGTACTTGTAATATTAAAACT [XGTACX_site8369]”, the “gcPBM binding intensity (ln)” value came to 9.59.

Turning to “AAATGCGCCATGTGTACACATATATATATATATATA [CACACA_site4649]”, the “gcPBM binding intensity (ln)” value stood at 10.1.

Consider “TACATATATAAAAATTGTACACTTCATAAGAAAAAA [XGTACX_site4347]”, for which the “gcPBM binding intensity (ln)” value was 9.58.

For the sequence “TTAAATAAGTTCTTCACACATATATATATATATATA [CACACA_site4742]”, the “gcPBM binding intensity (ln)” value was found to be 9.67.

As for “TTTTTATATTATTTAATGAGAAATAATTATAAACAA [CACACA_negctrl_site553]”, the “gcPBM binding intensity (ln)” value amounted to 9.27.

As for “AAAAATATTATGATGTTTATTAGAAAGGAAAAAACT [CACACA_negctrl_site1417]”, the “gcPBM binding intensity (ln)” value came to 9.56.

On to “ATGTGATGTTATATATGTACTTATTTTTTAATAAGG [XGTACX_site1786]”, for which the “gcPBM binding intensity (ln)” value is 9.59.

Take “TCGGTATCTGTTCAAAGTACACATTTGTATACAAAA [XGTACX_site1890]”: the “gcPBM binding intensity (ln)” value turned out to be 9.47.

On to “ACACTATCTTAGATTTGTACATATTTATATATGTAT [XGTACX_site8739]”, for which the “gcPBM binding intensity (ln)” value was 9.82.

Regarding “TATATAACATATGGGACACACATGCAACTGTTATAT [CACACA_site3792]”, the “gcPBM binding intensity (ln)” value amounted to 9.91.

For the sequence “TATTTTTACAATGGTAGTACCATTTTGAATCTTTGT [XGTACX_site6092]”, the “gcPBM binding intensity (ln)” value was 9.6.

For “CACCCGCACGTATTTGCACACATTGCCACGTAATTA [CACACA_site5786]”, the “gcPBM binding intensity (ln)” value came to 10.

Regarding “TGCTTATCCATTTCTACACACAAAAAAAAAAAAAAA [CACACA_site37]”, the “gcPBM binding intensity (ln)” value came to 9.5.

As to “AAATGGGTTTATTTAACACACAAAAGAAAAAATATA [CACACA_site1938]”, the “gcPBM binding intensity (ln)” value stood at 9.77.

For “TATATATATTTATGTTGTACAAAATATTATTACGTA [XGTACX_site5384]”, the “gcPBM binding intensity (ln)” value was found to be 9.56.

As for “TTATATTATAACAAACGTACGAATTTTATACAAATA [XGTACX_site7258]”, the “gcPBM binding intensity (ln)” value was 9.58.

For “ATATATATATATATATGTACATATATACATATATGT [XGTACX_site1521]”, the “gcPBM binding intensity (ln)” value turned out to be 10.2.

“TTTTTTTTTTTTTGATGTACAATAATTAAAGAGTAA [XGTACX_site8403]”: the “gcPBM binding intensity (ln)” value was found to be 9.2.
